# Experimental data from PMC4336329 (PLoS ONE, 2015).
# The campaign covered roughly 310,000 compounds. About 2,200 (0.71%) showed an effect of 50% or more. The effect is printed as a negative number. Some of the results follow.
# Molecular target: human ether-à-go-go-related gene (hERG) potassium channel (human, UniProt Q12809)
# Experiment: primary screen, population patch clamp on CHO cells stably expressing hERG
# Sequence of human ether-à-go-go-related gene (hERG) potassium channel (Q12809 whole entry, looked up): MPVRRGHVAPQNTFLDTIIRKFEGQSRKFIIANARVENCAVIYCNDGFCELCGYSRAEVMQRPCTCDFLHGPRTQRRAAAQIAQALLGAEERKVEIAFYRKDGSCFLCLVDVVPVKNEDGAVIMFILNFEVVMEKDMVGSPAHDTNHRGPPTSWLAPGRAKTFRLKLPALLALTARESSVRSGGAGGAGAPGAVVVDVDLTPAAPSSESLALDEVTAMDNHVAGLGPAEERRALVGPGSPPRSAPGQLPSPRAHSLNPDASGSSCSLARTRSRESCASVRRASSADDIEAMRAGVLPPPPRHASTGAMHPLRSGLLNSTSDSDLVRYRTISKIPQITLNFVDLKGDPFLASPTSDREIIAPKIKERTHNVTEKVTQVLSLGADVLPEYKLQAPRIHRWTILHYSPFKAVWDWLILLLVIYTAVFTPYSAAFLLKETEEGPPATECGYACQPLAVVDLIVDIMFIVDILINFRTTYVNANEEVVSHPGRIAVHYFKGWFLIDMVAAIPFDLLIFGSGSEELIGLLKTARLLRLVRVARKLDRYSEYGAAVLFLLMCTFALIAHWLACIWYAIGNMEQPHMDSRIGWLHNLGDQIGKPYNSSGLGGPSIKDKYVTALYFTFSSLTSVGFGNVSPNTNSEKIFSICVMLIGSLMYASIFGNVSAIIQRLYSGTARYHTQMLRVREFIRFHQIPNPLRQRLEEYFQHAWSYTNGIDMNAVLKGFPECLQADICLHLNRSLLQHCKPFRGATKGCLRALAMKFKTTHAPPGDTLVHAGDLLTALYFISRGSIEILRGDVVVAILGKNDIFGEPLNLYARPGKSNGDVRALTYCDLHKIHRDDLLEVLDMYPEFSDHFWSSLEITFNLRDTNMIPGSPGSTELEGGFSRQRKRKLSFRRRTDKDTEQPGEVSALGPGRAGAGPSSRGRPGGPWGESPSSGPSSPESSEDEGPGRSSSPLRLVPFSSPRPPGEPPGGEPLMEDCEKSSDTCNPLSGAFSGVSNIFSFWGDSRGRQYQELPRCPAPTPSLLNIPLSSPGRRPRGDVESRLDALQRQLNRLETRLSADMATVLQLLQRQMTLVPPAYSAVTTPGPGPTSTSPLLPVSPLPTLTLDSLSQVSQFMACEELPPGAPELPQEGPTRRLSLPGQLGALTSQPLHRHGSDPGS
row,SMILES,"hERG current change (%, negative = inhibition) at 1uM [%]"
1,COc1cccc(NC(=O)CCc2nc(-c3cccs3)no2)c1,13.6
2,Cc1ccc(C(=O)NCCCn2ccnc2)o1,24.9
3,Cc1cc(OCC(=O)c2cccc(C(F)(F)F)c2)n2cnnc2n1,-4.84
4,COc1ccccc1N1CCN(C2CCN(C(=O)c3cccs3)CC2)CC1,0.796
5,COC(=O)CC1C(=O)NCCN1C(=S)Nc1cccc(C(F)(F)F)c1 (stereo not drawn),4.72
6,Cc1ccccc1OC1C(=O)N(CC2CCCO2)C1c1ccc2c(c1)OCO2 (stereo not drawn),11.7
7,N#Cc1c(-c2ccccc2)ccn(Cc2ccccc2Cl)c1=O,0.439
8,CCOC1=NN(c2ncc(C(F)(F)F)cc2Cl)C(=O)C1,8.65
9,FC(F)(F)c1cccc(N2CCN(c3ccc4nnc(-c5ccccc5)n4n3)CC2)c1,-13.4
10,C=C1C[C@H](O)[C@@H]2[C@H](OC(=O)[C@H]2C)[C@H]2[C@H](C)[C@@H](O)C[C@@H]12,12.9
11,CCOCCOCCC(C(=O)O)P(=O)(c1ccccc1)c1ccccc1 (stereo not drawn),-8.93
12,CSc1ccc(CNC2CC2)cc1.Cl,-0.741
13,CCN(CC)C(=O)c1ccccc1NC(=O)c1cccc(S(=O)(=O)N(CC)CC)c1,5.09
14,Cl.Fc1ccc(C(OCCN2CCCC2)c2ccc(Br)cc2)cc1 (stereo not drawn),-66
15,CCc1cccc(N=c2c([N+](=O)[O-])nn(-c3ccc(Cl)cc3)n2O)c1,1.94
16,Cc1ccc(S(=O)(=O)N2CCN(C(C)C)CC2)cc1,16.2
17,O=C(c1ccc(CNS(=O)(=O)c2ccc(Br)cc2)cc1)N1CCCCCC1,18.1
18,O=C(CN(Cc1ccc2c(c1)OCO2)C(=O)CNC(=O)c1ccco1)NC1CCCCC1,7.03
19,CN(C)CCCNC(=S)NCc1ccc(Cl)cc1,-3.81
20,CC(=O)Nc1ccc(/C=N/NC(=O)c2cc3cc(C)ccc3nc2C)cc1,5.12
21,CCN(CC)S(=O)(=O)c1ccc(N2CCCC2)c(C(=O)Nc2ccc(OC)c(Cl)c2)c1,11.3
22,CCOC(=O)c1sc(C)c2c1NC1(CCCCCC1)NC2=O,5.81
23,NC(=O)CN1CCCC1c1ccc2c(c1)OCCO2 (stereo not drawn),7.17

row,SMILES,"hERG current change (%, negative = inhibition) at 1uM [%]"
1,O=C(Nc1ccc(F)cc1)c1cccc(C(=O)Nc2ccc(F)cc2)c1,-4.92
2,CC(C)(C)c1ccc(/C=N/NC(=O)c2ccccn2)cc1,3.78
3,COc1ccc(C)c2sc(NC(=O)c3cccc(N4C(=O)CCC4=O)c3)nc12,-3.29
4,Cn1c(=O)nc2n(Cc3ccccc3)c3cccc(Cl)c3cc-2c1=O,7.14
5,Cc1nnc(SCSc2nnc(C)s2)s1,11.1
6,CN(C)c1ccc(/C=N/OC(=O)Nc2ccccc2)cc1,11.8
7,O=C(O)CCc1ccc(-c2cccs2)n1CCc1ccccc1,10.7
8,CN(C)c1ccc(C(=O)OCC(=O)NC2CCCCCC2)cc1,0.405
9,Cc1nc2ccc(NC(=O)COc3cccc(F)c3)cc2s1,24.2
10,Cc1ccc(CSC2=NCCN2C(=O)c2ccc(S(=O)(=O)N(C)C)cc2)cc1,5.25
11,C#CCNC(=O)C1=C[C@H](C2CC2)C[C@H](OCCCCO)O1,-1.18
12,COc1ccc(N2CCN(C(C)C(=O)Nc3nnc(C)s3)CC2)cc1.Cl (stereo not drawn),16.4
13,CC(=O)NC(N(C#N)c1nc(Cl)nc(N(C)C)n1)C(Cl)(Cl)Cl (stereo not drawn),12.7
14,O=C(COc1ccc(Cl)cc1)Nc1cnn(Cc2c(Cl)cccc2Cl)c1,16.6
15,COc1ccc(CN2CCN(C(=O)c3cccc4ccccc34)CC2)c(OC)c1OC.O=C(O)C(=O)O,17.6
16,COc1ccc(C(=O)NC2CCN(CC(=O)Nc3cccc(OC)c3)CC2)cc1,-1.73
17,COc1cccc(/C=N/NC(=O)CNC(=O)c2ccc3c(c2)OCCO3)c1O,7.07
18,COc1ccccc1NC(=S)N1CCC(NC(=O)c2ccco2)CC1,4.32
19,Cc1ccc(OC/C(=N\O)C(C)(C)C)c([N+](=O)[O-])c1,13.1
20,O=C(Nc1ccc(Cl)cc1)c1ccc(-c2ccccn2)s1,5.06
21,NC(=O)NC(CC(=O)Nc1cccnc1)c1cccc(Br)c1 (stereo not drawn),12.3
22,CCCCCCn1c(=O)c(Cc2ccccc2)c(O)c2ccccc21,8.47
